Measured values from the supplement of paper PMC8728848.
The other results are listed elsewhere or left out.

What was measured:
Experiment in all cases: glycan array binding signal (z-score within array); higher = stronger binding
Conditions in all cases: glycan notation: IUPAC condensed, linker removed
[1] = target: Neu5Ac(a2-6)GalNAc(b1-4)GlcNAc6S
In short: (§1)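 Negative Z-scores can be read as non-binding. The Z-score is calculated within each array and then averaged across arrays of one protein sequence at different concentrations or buffers and across linkers. Arrays, 3228 in all, were curated from the Consortium for Functional Glycomics database and kept only where the protein sequence was available.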

[2] = target: Neu5Ac(a2-6)GlcNAc(b1-4)GlcNAc
In short: as §1

[3] = target: Neu5Ac(a2-6)GlcNAc(b1-4)GlcNAc(b1-4)GlcNAc
In short: as §1

Neu5Ac(a2-8)Neu5Ac = target: Neu5Ac(a2-8)Neu5Ac
In short: as §1

[4] = target: Neu5Ac(a2-8)Neu5Ac(a2-3)Gal(b1-3)GalNAc(b1-4)[Neu5Ac(a2-8)Neu5Ac(a2-3)]Gal(b1-4)Glc
In short: as §1

[5] = target: Neu5Ac(a2-8)Neu5Ac(a2-3)Gal(b1-4)Glc
In short: as §1

[6] = target: Neu5Ac(a2-8)Neu5Ac(a2-3)[Gal(b1-3)GalNAc(b1-4)]Gal(b1-4)Glc
In short: as §1

[7] = target: Neu5Ac(a2-8)Neu5Ac(a2-3)[GalNAc(b1-4)]Gal(b1-4)Glc
In short: as §1

[8] = target: Neu5Ac(a2-8)Neu5Ac(a2-8)Neu5Ac
In short: as §1

[9] = target: Neu5Ac(a2-8)Neu5Ac(a2-8)Neu5Ac(a2-3)Gal(b1-4)Glc
In short: as §1

[10] = target: Neu5Ac(a2-8)Neu5Ac(a2-8)Neu5Ac(a2-3)[GalNAc(b1-4)]Gal(b1-4)Glc
In short: as §1

[11] = target: Neu5Ac(a2-8)Neu5Ac(a2-8)Neu5Ac(a2-8)Neu5Ac(a2-3)[GalNAc(b1-4)]Gal(b1-4)Glc
In short: as §1

[12] = target: Neu5Ac(b2-6)Gal(b1-4)GlcNAc
In short: as §1

Neu5Ac(b2-6)GalNAc = target: Neu5Ac(b2-6)GalNAc
In short: as §1

[13] = target: Neu5Ac9Ac(a2-3)Gal(b1-3)GlcNAc
In short: as §1

[14] = target: Neu5Ac9Ac(a2-3)Gal(b1-4)GlcNAc
In short: as §1

[15] = target: Neu5Ac9Ac(a2-6)Gal(b1-4)GlcNAc
In short: as §1

[16] = target: Neu5Gc(a2-3)Gal(b1-3)GlcNAc
In short: as §1

[17] = target: Neu5Gc(a2-3)Gal(b1-3)[Fuc(a1-4)]GlcNAc
In short: as §1

Neu5Gc(a2-3)Gal(b1-4)Glc = target: Neu5Gc(a2-3)Gal(b1-4)Glc
In short: as §1

[18] = target: Neu5Gc(a2-3)Gal(b1-4)GlcNAc
In short: as §1

[19] = target: Neu5Gc(a2-3)Gal(b1-4)[Fuc(a1-3)]GlcNAc
In short: as §1

[20] = target: Neu5Gc(a2-6)Gal(b1-4)GlcNAc
In short: as §1

Neu5Gc(a2-6)GalNAc = target: Neu5Gc(a2-6)GalNAc
In short: as §1

[21] = target: Neu5Gc(b2-6)Gal(b1-4)GlcNAc
In short: as §1

B1: ArathEULS3 (Arabidopsis thaliana), Q945P1 (protein)
chain: MEHHHQHHRHHQRDDGEDDRQSFGVPPPHVDAPPQPHGLYQSQPHFDPYAPTPQAPAPYRSETQFEPHAPPPYRSEPYFETPAPPPSFGHVSHVGHQSPNESYPPEHHRYGGYQQPSNSLLESHGDHSGVTHVAHHSSNQPQSSSGVYHKPDENRLPDNLAGLAGRATVKVYSKAEPNYNLTIRDGKVILAPADPSDEAQHWYKDEKYSTKVKDADGHPCFALVNKATGEAMKHSVGATHPVHLIRYVPDKLDESVLWTESKDFGDGYRTIRMVNNTRLNVDAYHGDSKSGGVRDGTTIVLWDWNKGDNQLWKIFPFILEQKLISEEDLNSAVDHHHHHH
glycan array binding signal (z-score) [1]: -0.282
glycan array binding signal (z-score) [2]: -0.135
glycan array binding signal (z-score) [3]: -0.128
glycan array binding signal (z-score) (Neu5Ac(a2-8)Neu5Ac): -0.14
glycan array binding signal (z-score) [4]: -0.033
glycan array binding signal (z-score) [5]: -0.187
glycan array binding signal (z-score) [6]: -0.098
glycan array binding signal (z-score) [7]: -0.282
glycan array binding signal (z-score) [8]: -0.093
glycan array binding signal (z-score) [9]: -0.222
glycan array binding signal (z-score) [10]: 0.27
glycan array binding signal (z-score) [11]: -0.38
glycan array binding signal (z-score) [12]: -0.033
glycan array binding signal (z-score) (Neu5Ac(b2-6)GalNAc): -0.069
glycan array binding signal (z-score) [13]: -0.228
glycan array binding signal (z-score) [14]: -0.232
glycan array binding signal (z-score) [15]: -0.078
glycan array binding signal (z-score) [16]: -0.174
glycan array binding signal (z-score) [17]: -0.263
glycan array binding signal (z-score) (Neu5Gc(a2-3)Gal(b1-4)Glc): 1.72
glycan array binding signal (z-score) [18]: -0.247
glycan array binding signal (z-score) [19]: 0.101
glycan array binding signal (z-score) [20]: -0.271
glycan array binding signal (z-score) (Neu5Gc(a2-6)GalNAc): -0.261
glycan array binding signal (z-score) [21]: -0.251
